This note sets out measurements from the RNAGym collection of RNA variant scans (doi:10.7554/elife.90254).

The labels stand for the following.
B1: LINE1-full (parent)
chain: UACGUAGGUGGUUUUCCCCUGAUAGUGCUAAGGGGGCCUGGAAGUUUGGACUGGGCAGAGCUCAACACAGCGUGGCAAAGUGGCUGUGGCUAGACUGCCUCUCUGGAUUCCUCGUCACUCAGCAGGGCAUCUCUGAGAGAAAUGCC

The source gives no read counts; variants with many changes may rest on few reads.

This series covers variants of B1. The series can be described thus: self-cleavage, relative activity (ratio to wild type); higher = more cleavage; in vitro, sequencing; the parent is a self-cleaving ribozyme.
Consider UACGUAGGCGGUUUUCCCCUGAUAGUGCUAAGGGGGCCUGGAAGUUAGGACUGGGCAGAGCCCUACACAGCGUGGCAAAGUGGCUGUGGCUAGACUGCCUCUCUGGAUUCCUCGUCACUCAGCAGGGCAUCUCUGAGAGAAAUGCC, for which the self-cleavage amounted to 0.
Then UACGUAGGCGGUUUUCCCCUGAUAGUGCUAAGGGGGCCUGGAAGCUUGGACUGGGCAGAGCCCAACACAGCGUGGCAAAGUGGCUGUGGCUAGACUGCCUCUCUGGAUUCCUCGUCACUCAGCAGGGCAUCUCUGAGAGAAAUGCC, with 0; and UACGUAGGCGGUUUUCCCCUGAUAGUGCUAAGGGGGCCUGGAAGUUUGGACUGGGCAGAGCACAACACAGCAUGGCAAAGUGGCUGUGGCUAGACUGCCUCUCUGGAUUCCUCGUCACUCAGCAGGGCAUCUCUGAGAGAAGUGCC, with 0.08.
Then UACGUAGGCGGUUUUCCCCUGAUAGUGCUAAGGGGGCCUGGAAGUUUGGACAGGGCAGAGCUCAACACAGCGAGGCAAAGUGGCUGUGGCUAGACUGCCUCUCUGGAUUCCUCGUCACUCAGCAGGGCAUCUCUGAGAGAAAUGCC, with 1.94; and UACGUAGGCGGUUUUCCCCUGAUAGUGCUAAGGGGGCCUGGAAGUUUGGACUGGGCAGAGCUCAACACAGCGUGGCAAAGUGGCAGUGGCUAGACUGCCCCUCUGGAUUCCUCGUCACUCAGCAGGGCAUCUCUGAGAGAAAUGCC, with 0.
Then UACGUAGGCGGUUUUCCCCUGAUAGCGCUAAGGGGGCCUGGAAGUUUGGACUGGGCAGAGCUCAACACAGCGUGGCAUAGGGGCUGUGGCUAGACAGCCUCUCUGGAUUCCUCGUCACUCAGCAGGGCAUCUCUGAGAGAAACGCC, with 0.28; and UACGUAGGCGGUUUUCCCCUGAUAGUGCUAAGGGGGCCCGGAAGUUUGGACCGGGCAGAGCUCAACACAGCGUGGCAAAGUGGCUGUGGCUAGACUGCCUCUCUGGAUUCCUCGUCACUCAGCAGGGCAUCUCUGAGGGAAAUGCC, with 0.44.
UACGUAGGCGGUUUUCCCCUGAUAGUGCUAAGGGGGCCUGGAAGUUUGGACUGGGCAGAGCCCAACACAGCGUGGCAAAGUGGCUGUGGCUAGACUGCCUCUCUGGGUUCCUCGUCACUCAGCGGGGCAUCUCUGAGAGGAAUGCC: the self-cleavage came out at 0.4.
Then UACGUAGGCGGUUUUCCCCUGAUAGUGCUAAGGGGGCCUGGAAGUCUGGACUGGGCAGUGCUCAACACAGCGUGGCAAAGUGGCUGUGGCUAGACUGCCUCUCUGGAUUCCUCGUCACUCAGCAGGGCAUCUCUGAGAGAAAUGCC, with 1.31; and UACGUAGGCGGUUUUCCCCUGAUAGUGCAAAGGGGGCCUGGAAGUUUGGACUGGGCAGAGCUCAACACAGCGUGGCAAAGUGGCUGUGGCUAGACUGCCUCUCUGUAUUCCUCGUCGCUCAGCAGGGCAUCUCUGAGAGAAAUGCC, with 1.6; and UACGUAGGCGGUUUUCCCCUGAUAGUGCUAAGGGGGCCUGGAAGUAUGGACUGGGCAGGGCUCAACACAGCGUGGCAAAGUGGCUGUGGCUAGACUGCCUCUCUGGAUUCCUCGUCACUCAGCAGGGCAUCUCUGAGAGAAAUGCC, with 0.24.
Then UACGUAGGCGGUUUUCCCCUGAUAGAGCUAAGGGGGCCCGGUAGUUUGGACUGGGCAGAGCUCAACACAGCGUGGCAAAGAGGCUGUGGCUAGACUGCCUCUCUGGAUUCCUCGUCACUCAGCAGGGCAUCUCUGAGAGAAAUGCC, with 0.54; and UACGUAGGCGGUUUUCCCCUGAUAGUGCUAAGGGGGCCUGGAAGUUCGGACUGGGCAGAGCUCAACACAGCGUGGCGAAGUGGCUGUGGCUAGUCUGCCUCUCUGGAUUCCUCGUCACUCAGCAGGGCAUCUCUGAGAGAGAUGCC, with 1.38; and UACGUAGGCGGUUUUCCCCUGAUAGUGCUAAGGGGGCCUGGAAGUCUGGACUGGGCAGAGCUCAACACAGCGUGGCAAAGUGGCUGUGGCUAGACUGCCUCUCUGGAUUCCUCGUCACUCAGCUGGGCAUCUCUGAGAGAAAUGCC, with 2.87.
Then UACGUAGGCGGUUUUCCCCUGAUAGUGCUAAGGGGGCCAGGAAGUUUGGACUGGGCAGAGCACAACACAGCGUGGCAAAGUGGCUGUGGCUAGACUGCCUCUCUGGAUUCCUCGUCACUCAGCAGGGCAUCUCUGAGAGAAAUGCC, with 0.08.
Turning to UACGUAGGCGGUUUUCCCCUGAUAGUGCUAAGGGGGCCUGGAAGUUUGGACUGGGCAGAGCACAACACGGCGUGGCAAAGUGGCUGUGACUAGACUGCCUCUCUGGAUUCCUCGUCACUCAGCAGGGCAUCUCUGAGAGAAAUGCC, the self-cleavage stood at 0.07.
For UACGUAGGCGGUUUUCCCCUGAUAGUGCUAAGGGGGCCUGGAAGUUCGGACUGGGCAGAGCUCAACACAGCGUGGCAAAGUGGCUGCGGCUAGACUGCCUCUCUGGAUUCCUCGUCACUUAGCAGGGCACCUCUGGGAGAAAUGCC the value was 0.86; for UACGUAGGCGGUUUUCCCCUGAUAGUGCUAAGGGGGCCUGGAAGUUAGGACUGGGCAGAGCUCAACACAGCGUGGCAAAGUGGCUGUGGCUAGACUGCCUCUCUGGAUUCCUCGUCAUUCAGCAGGGCAUCUCUGAGAGAAAUGCC, 1.07.
Then UACGUAGGCGGUUUUCCCCUGAUAGUGCUAAGGGGGCCUGGAAGUUUGGACUGGGCAGAGCUCAACACAGCGUGGCAAAGUGGCAGUGGCUAGUCUGCCUCUCUGGAUUCCUCGUCACUCAGCAGGGCAUCUCUGAGAGAAAUGCC, with 0.19.
For UACGUAGGCGGUUUUCCCCUGAUAGUGCUAAGGGGGCCUGGAAGUUUGGACCGGGCAGAGCUCAACACAGCGUGGCAAAGUGGCUGUGGCUAGACUGCCUCUCUGGAUUCCUCGUCACUCAGCAGGGCAUCUCUGAGAGGAAUGCC the value was 0.88.
In the case of UACGUAGGCGGUUUUCCCCUGAUAGUGCUAAGGGGGCCUGGAAGUUUGGACUGGGCAGAGCUCAACACAGCGCGGCAAAGUGGCUGUGGCUAGACUGCCUCUCUGGAUUCCUCGUCACUCAGCAGGGCAUCUCUGAGGGAAAUGCC, the self-cleavage turned out to be 1.2.
For UACGUAGGCGGUUUUCCCCUGAUAGUGCUAAGGGGGCCUGGAAGUUUGGACCGGGCAGAGCUCAACACAGCGUGGCAAAGUGGCUGUGGCUAGACUGCCUCCCUGGAUUCCUCGUCACUCAGCAGGGCAUCUCUGAGAGAAAUGCC the value was 0.68; for UACGUAGGCGGUUUUCCCCUGAUAGUGCUAAGGGGGCCUGGAAGUUGGGACUGGGCAGAGCUCAACACAGCGUGGCAAAGUGGCUGCGGCUAGACUGCCUCUCUGGAUUCCUCGUCACUCAGCAGGACAUCACUGAGAGAAAUGCC, 0.16; for UACGUAGGCGGUUUUCCCCUGAUAGUGCUAAGGGGGCCUGGAAGUUUGGACAGGGCUGAGCUCAACACAGCGUGGCAAAGUGGCUGUGGCUAGACUGCCUCUCUGGAUUCCUCGUCACUCAGCAGGGCAUCUCUGAGAGAAAUGCC, 0.19.
With UACGUAGGCGGUUUUCCCCUGAUAGUGCUAAGGGGGCCUGGAAGCUUGGACUGGGCAGAGCUCUACACAGCGUGGCAAAGUGGCUGUGGCUAGACUGCCUCUCUGGAUUCCUCGUCACUCAGCAGGGCAUCUCUGAGAGAGAUGCC, the self-cleavage stood at 0.56.
Then UACGUAGGCGGUUUUCCCCUGAUAGUGCUAAGGGGGCCUGGAAGUUAGGACUGGGCAGAGCUCAACACAGCGUGGCAAAGUGGCUGUGGCUAGUCUGCCACUCUGGAUUCCUCGACACUCAGCAGGGCAUCUCUGAGAGAAAUGCC, with 0.25.
Take UACGUAGGCGGUUUUCCCCUGAUAGUGCAAAGGGGGCCAGGAAGUUUGGACUGGGCAGAGCGCAACACAGCGUGGCUAAGUGGCUGUGGCUAGACUGCCUCUCUGGAUUCCACGUCACUCAGCAGGGCAUCUCUGAGAGAAAUGCC: the self-cleavage turned out to be 0.27.
For the variant UACGUAGGCGGUUUUCCCCUGAUAGUGCUAAGGGGGCCUGGAAGUUUGGACAGGGCAGAGCUCAACACAGCGUGGCAAAGUGGCUUUGGCUAGACUGCCUCUCUGGAUUCCUCGUCACUCAGCAGGGCAUCUCUGAGAGAAAUGCC, the self-cleavage turned out to be 0.14.
For UACGUAGGCGGUUUUCCCCUGAUAGUGCUAAGGGGGCCUGGAAGUUUGGACUGGGCAGAGCUCAACACAGCGUGGCAAAGCGGCUGUGGCUAGACUACCUCUCUGGAUUCCUCGUCACUCAGCAGGGCAUCUCUGAGAGAAAUGCC the value was 0.22; for UACGUAGGCGGUUUUCCCCUGAUAGUGCUAAGGGGGCCUGGAAGUUUGGACCGGGCAGAGCUCUACACUGCGUGGCAAAGUGGCUGUGGCUAGACUGCCUCUCUGGAUCCCUCGUCGCUCAGCAGGGCAUCUCUGAGAGAAAUGCC, 0; for UACGUAGGCGGUUUUCCCCUGAUAGUGCUAAGGGGGCCUGGAAGUUAGGACUGGGCAGAGCUCAGCACAGCGUGGCAAAGUGGCUGUGGCUAGACUGCCUCUCUGGAUUCCUCGUCACUCAGCAGGGCAUCUCUGAGAGAAAUGCC, 0.12.
Then UACGUAGGCGGUUUUCCCCUGAUAGUGCUAAGGGGGCCUGGAAGCUUGGACUGGCCAGAGCUCAACACAGCGUGGCAAAGUGGCUGUGGCUAGACGGCCUCUCUGAAUUCCUCGUCACUUAGCAGGGCAUCUCUGAGAGAAGUGCC, with 0.
Turning to UACGUAGGCGGUUUUCCCCUGAUAGUGCUAAGGGGGCCUGGAAGUUUGGACUGGGCAGAGCUCAACACAGCGCGGCAAAGUGGCUGUGGCUAGACUGCCUCUCUGGAAUCCUCGUCACUCAGCAGGGCAUCUCUGAGAGAAAUGCC, the self-cleavage is 2.45.
Consider UACGUAGGCGGUUUUCCCCUGAUAGUGCUAAGGGGGCCUGGAAGUUUGGACCGGGCAGAGCUCAACACAACGUGGCAAAGUGGCUGUGGCUAGACUGCCUCUCUGGAUUCCUCGUCACUCAGCAGGGCAUCUCUGAGAGAAAUGCC, for which the self-cleavage stood at 0.13.
For UACGUAGGCGGUUUUCCCCUGAUAGUGCUAAGGGGGCCUGGAAGUUCGGACUGGGCAGAGCCCAACUCAGCGUGGCAAAGUGGCUGUGGCUAGACUGCCUCUCUGGAUUCCUCGUCACUCAGCAGGGCAUCUCUGAGAGAAAUGCC the value was 0.13; for UACGUAGGCGGUUUUCCCCUGAUAGUGCUAAGGGGGCCUGGAAGUUUGGACUGGGCAGAGCUCAACACAGCGUGGCAAAGAGGCUGUGGCUAGACUGCCCCUCUGGAUUCCUCGUCACUCAGCAGGGCAUCUCUGAGAGAAAUGCC, 1.69.
For UACGUAGGCGGUUUUCCCCUGAUAGUGCCGAGGGGGCCUGGAAGUUUGGACUGGGCAGAGCUCAACACAGCGUGACAAAGUGGCUGUGGCUAGACUGCCUCUCUGGAUUCCUCGUCACUCAGCAGGGCAUCUCUGAGAGAAGUGCC the value was 1.41; for UACGUAGGCGGUUUUCCCCUGAUAGUGCCAAGGGGGCCUGGAAGUUUGGACUGGGCAGAGCUCAACACAGCGUGGCAAAGUGGCUGUGGCUAGACUGCCUCUCUGGAUUCUUCGUCACUCAGCAGGGCAUCUCUGAGAGAAAUGCC, 0.65; for UACGUAGGCGGUUUUCCCCUGAUAGUGCUAAGGGGGCCUGGAAGCUUGGACUGGGCAGAGCUCAACACAGCGUGGCAAAGUGGCUGUGGCUAGACUGCCUCUCUGGAUUCCUCGACACUCAGCAGGGCAUCUCUGUGAGAAAUGCC, 0.53.
